{"source": "PubChem BioAssay AID463173", "about": "(ICCB-Longwood Screening Facility, Harvard Medical School, 2010)", "note": "The campaign covered roughly 52,000 compounds. About 4,300 (8.3%) were called active. Cut-off read from the data, not from the text of the source: active = survival mostly below about 52% (no sharp cut-off); inactive = mostly above about 56%. The list shows a part of the results."}
{"tested_on": "DeltatarO mutant", "test": "growth inhibition of S. aureus wild type versus tarO mutant, primary screen, teichoic acid synthesis inhibitors, RN4220, OD600 (AID 463173)", "conditions": "OD600, 18 h, active compounds read low, screened at 18.75 µg/mL (by protocol)"}
{"molecule": "Cc1cccc(-n2ncc(C(=O)NCc3ccc4c(c3)OCO4)c2C2CCN(C(=O)OC(C)(C)C)CC2)c1", "survival": "inactive: 91%"}
{"molecule": "CCc1ccc(NS(=O)(=O)c2ccc3[nH]c4c(c3c2)CCCCCC4)cc1", "survival": "inactive: 86%"}
{"molecule": "Cc1ccc(CNC(=O)CSc2c(C(C)C)cnc3c2c(=O)n(C)c(=O)n3C)cc1", "survival": "inactive: 85%"}
{"molecule": "O=C(CSCc1ccc(F)cc1)NCc1ccc(F)cc1", "survival": "inactive: 94%"}
{"molecule": "Cc1cccc(CC(=O)N2CC(=O)Nc3ccc(F)cc3C2c2ccccc2)c1", "note": "(stereo not given)", "survival": "active: 53%"}
{"molecule": "COc1cc(NC(=O)CCCc2nnc3n(C)c(=O)c4sccc4n23)cc(OC)c1OC", "survival": "inactive: 76%"}
{"molecule": "CCc1ccccc1NC(=O)Nc1ccc2snnc2c1", "survival": "active: 41%"}
{"molecule": "CC(C)c1ccc2nc(SCC(=O)N3CCCC3)c(C#N)cc2c1", "survival": "inactive: 92%"}
{"molecule": "CCC(CC)C(=O)N1CCc2cc(OC)c(OC)cc2C1COc1ccc(F)cc1", "note": "(stereo not given)", "survival": "inactive: 73%"}
{"molecule": "O=C(NCC1CC1)Nc1c[nH]c2ccccc2c1=O", "survival": "inactive: 92%"}
{"molecule": "CCOC(=O)c1c(-c2ccccc2)csc1NC(=O)c1nc(SCC)ncc1Cl", "survival": "inactive: 87%"}
{"molecule": "Cc1ccc(-c2nc3scc(CCNS(=O)(=O)c4ccc(Oc5ccccc5)cc4)n3n2)cc1", "survival": "inactive: 115%"}
{"molecule": "CCc1cccc(C)c1NC(=O)CN1C(=O)c2cccc3cccc1c23", "survival": "inactive: 61%"}
{"molecule": "COCCNC(=S)N1CCCN(c2nc3cc(C)ccc3cc2C#N)CC1", "survival": "inactive: 96%"}
{"molecule": "Cc1ccc2nc(CSc3nnc(NC(=O)c4ccc(C(C)(C)C)cc4)s3)cc(=O)n2c1", "survival": "inactive: 81%"}
{"molecule": "CC(=O)Nc1ccc(NC(=O)c2ncoc2-c2ccco2)cc1", "survival": "inactive: 71%"}
{"molecule": "CCOc1cc(/C=C(\\C#N)C(=O)Nc2ccc(OC)cc2)ccc1OCc1cc(=O)n2nc(CC)sc2n1", "survival": "active: 55%"}
{"molecule": "CC(C)(C)OC(=O)N1CCC(c2c(C(=O)NCCN3CCOCC3)cnn2-c2ccc(F)cc2F)CC1", "survival": "active: -1%"}
{"molecule": "COc1ccc(-c2cccc(NS(=O)(=O)c3ccc(NC(C)=O)cc3)c2)nn1", "survival": "inactive: 84%"}
{"molecule": "CCOc1ccccc1Nc1nc2c(S(=O)(=O)c3ccc(C)cc3)nnn2c2ccsc12", "survival": "inactive: 37%"}
{"molecule": "Cc1oc(-c2cccc(Br)c2)nc1Cn1c(SCc2cccc(F)c2)nc2cccnc21", "survival": "inactive: 80%"}
{"molecule": "O=C(CCC1N=C2c3ccccc3N=C(SCc3cccc(Cl)c3)N2C1=O)NCCc1ccccc1", "note": "(stereo not given)", "survival": "inactive: 63%"}
{"molecule": "COc1ccc(NC(=O)CCS(=O)(=O)c2ccc3c(c2)n(C)c(=O)c(=O)n3C)cc1Cl", "survival": "inactive: 91%"}
{"molecule": "COc1ccc(Br)cc1CNC(=O)CSc1n[nH]c(-c2ccccc2)n1", "survival": "inactive: 73%"}
{"molecule": "CCC(C)[C@H](N)c1nnc(SCc2ccc(Cl)c(Cl)c2)o1", "note": "(stereo not given in full)", "survival": "inactive: 47%"}
